In PubChem BioAssay AID686979 (National Center for Advancing Translational Sciences (NCATS), 2013):
Among all 420,000 compounds or so, about 50,000 (12%) were called active. The inconclusive results got no clear call from the source; some entries with a clear call stand among them for comparison. Calls come from the whole dose curve; as a rule, active = well fitted inhibition curve with a large enough effect; inconclusive = small, poorly fitted or top-dose-only effect; inactive = flat fitted curve, though single readings scatter. Potencies of inconclusive entries are left out as doubtful fits.

Assay: qHTS for Inhibitors of human tyrosyl-DNA phosphodiesterase 1 (TDP1): qHTS in cells in presence of CPT; note: nearly all actives have a fitted effect of over 55% in size
Conditions: chicken DT40 Tdp1-/-;hTDP1 cells + 20 nM CPT, ATP luminescence, 48 h; activity change, negative = growth inhibition: at 46.2 µM (top of the series) unless noted
How it was run: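 Cell growth measured by CellTiter-Glo luminescence after a minimum 48 h, 37 C compound exposure with 20 nM CPT in Tdp1-knockout DT40 cells stably expressing hTDP1, seeded 400/well; qHTS titration format.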
% is set by controls: 0 for no effect and ±100 for the full control effect; potency is the fitted concentration of half-maximal effect; tags give direction and shape of the fitted curve.

Row | Compound | Potency | activity change, negative = growth inhibition
1 | Cc1cc(-n2c(SCC(=O)NCc3ccccc3)nc3ccsc3c2=O)ccc1Cl | active: 16.4 µM | –
2 | Cc1c(CN2CCOc3c(O)cc(-c4nc5ccccc5s4)cc3C2)cnn1C | – | inactive: -4.44% [at 9.04 µM]
3 | Cc1ccc2c(c1)c(=O)c1ccccc1n2CCCC(=O)Nc1ccc(C)c(F)c1 | inconclusive [inhibitor, single point] | –
4 | C=C[C@@H](C1=CC(=O)C(OC)=C(OC)C1=O)c1ccccc1 | active: 1.16 µM | –
5 | CC(=O)Nc1cccc(-c2ccnc3c2CC(C)(C(=O)NCCC(F)(F)F)O3)c1 (stereo not given) | active: 3.66 µM | –
6 | Cc1nc2ccc(C(=O)N/N=C/c3ccccc3O)cc2[nH]1 | inconclusive [inhibitor, single point] | –
7 | Cc1ccnc2c(Cl)ccc(Cl)c12 | inconclusive [inhibitor, single point] | –
8 | c1cc2c3c(cccc3c1)C(N1CCCCCC1)=N2 | inactive | –
9 | CCOC(=O)c1cc(-c2ccc(C)cc2)n(CCC(=O)Nc2nc3c(C)cccc3s2)c1C | inconclusive [inhibitor, single point] | –
10 | COc1cc2ncnc(N3CCN(C(=O)Nc4ccc(Oc5ccccc5)cc4)CC3)c2cc1OC | active: 11.2 µM | –
11 | Cc1ccc(CC(=O)N(C)CC(=O)Nc2ccc(N3CCOCC3)cc2)cc1C | active: 13 µM | –
12 | O=C(CSc1ccc2ccccc2n1)NCc1ccc2c(c1)OCO2 | inconclusive [inhibitor, single point] | –
13 | O=P(O)(O)OP(=O)(O)O | inconclusive [inhibitor, single point] | –
14 | c1ccc2c(Nc3nc4c(s3)CCCC4)cccc2c1 | inconclusive [inhibitor, partial curve] | –
15 | COc1cccc(-c2nc(N3CCN(c4ccccc4)CC3)c3ccccc3n2)c1O | inconclusive [inhibitor, single point] | –
16 | CCc1cccc(C)c1NS(=O)(=O)c1cc(-c2cc(C)no2)ccc1C | inconclusive [inhibitor, partial curve] | –
17 | O=C(CCCc1c[nH]c2ccccc12)N1CCN(S(=O)(=O)c2cccs2)CC1 | inconclusive [inhibitor, single point] | –
18 | O=[N+]([O-])/C=C/c1cc2ccccc2[nH]1 | active: 20.6 µM | –
19 | O=C/C(=C\Nc1ccc(Cl)cn1)c1nc2ccccc2o1 | inconclusive [inhibitor, single point] | –
20 | Cc1ccc(-n2nnc(-c3nsc(NC(=O)c4ccccc4)n3)c2C)cc1 | inconclusive [inhibitor, single point] | –
21 | Cc1ccc(S(=O)(=O)NCc2ccccc2)cc1C(=O)NCC(C)(C)N1CCOCC1 | inconclusive [inhibitor, single point] | –
22 | O=C(CCC1CCCC1)N1CCc2c([nH]c3ccccc23)C1c1ccc(Cl)cc1 (stereo not given) | inconclusive [inhibitor, single point] | –
23 | O=C1OC(=O)C2C3CCC(O3)C12 (stereo not given) | inactive | –
24 | NC(=O)NC(=O)C(OC(=O)CCNS(=O)(=O)c1ccccc1)c1ccccc1 (stereo not given) | inactive | –

Row | Compound | Potency | activity change, negative = growth inhibition
25 | O=C(COc1ccc(/C=N/NC(=O)c2ccncc2)cc1)Nc1ccc([N+](=O)[O-])cc1 | inactive | –
26 | COc1ccccc1Nc1nc(-c2cccc([N+](=O)[O-])c2)cs1 | inconclusive [inhibitor, single point] | –
27 | COc1cc(OC)nc(-n2ncc(Br)c(Br)c2=O)n1 | active: 0.651 µM | –
28 | COCCCNC(=O)c1ccc(Cn2c(=O)c3ccccc3n(CC(=O)NCCc3ccc(OC)c(OC)c3)c2=O)cc1 | active: 23.1 µM | –
29 | COCCCNC(=O)C[C@H]1C[C@H](C(=O)N2CCOCC2)[C@@]2(C)c3[nH]c4ccc(Cl)cc4c3CCN2C1=O | inconclusive [inhibitor, single point] | –
30 | CCN(C(=O)Cn1ncc2c(=O)oc3ccc(C)cc3c21)c1cc(OC)ccc1OC | inconclusive [inhibitor, single point] | –
31 | O=C(Nc1cccnc1)c1ccc(COc2cc(Cl)ccc2Cl)o1 | inconclusive [inhibitor, single point] | –
32 | Cn1[nH]c(-c2ccccc2)c(/C=N/O)c1=O | inconclusive [inhibitor, single point] | –
33 | Cc1ccc(C(=O)N2CCC(Cc3ccccc3)CC2)cc1S(=O)(=O)N1CCOCC1 | inconclusive [inhibitor, single point] | –
34 | CCOC(=O)CN1C(=O)C(Sc2n[nH]c(-c3cccc(C)c3)n2)CCc2ccccc21 (stereo not given) | inconclusive [inhibitor, single point] | –
35 | O=C(Nc1ccccc1F)c1nc(SCc2ccc(F)cc2)ncc1Cl | inactive | –
36 | CCOC(=O)c1c(NC(=O)c2ccc(Cl)s2)sc(C)c1C | inactive | –
37 | CC(=O)NC(=S)Nc1ccc(S(=O)(=O)N(C)Cc2ccccc2)cc1 | inconclusive [inhibitor, single point] | –
38 | CC(=O)Nc1cccc(N(C)S(C)(=O)=O)c1 | inactive | –
39 | OCCN1CCN(CCO)C1=S | inactive | –
40 | C1=CCN(c2nc(N3CCOCC3)nc(N3CCCc4ccccc43)n2)CC1 | inconclusive [inhibitor, single point] | –
41 | Cc1cc(=O)n2[nH]c(-c3ccc(F)cc3)nc2n1 | inconclusive [inhibitor, single point] | –
42 | O=C(c1ccc([N+](=O)[O-])cc1Cl)N1CCN(Cc2ccccc2)CC1 | inconclusive [inhibitor, single point] | –
43 | Cc1cc(C(F)F)n2nc(C(=O)Nc3cc(Cl)ccc3C)nc2n1 | inactive | –
44 | Cc1ccc(S(=O)(=O)CCC(=O)OCC(=O)NCc2ccc(F)cc2)cc1 | inactive | –
45 | CC1CCc2noc(NC(=O)c3ccccc3[N+](=O)[O-])c2C1 (stereo not given) | inconclusive [inhibitor, partial curve] | –
46 | CCOC(=O)C1CCCN(S(=O)(=O)c2ccc(N3CCCCS3(=O)=O)cc2)C1 (stereo not given) | inconclusive [inhibitor, single point] | –
47 | Cc1nc2cc(NC(=O)[C@@H]3C[C@@H](Sc4ccccn4)CN3Cc3ccc(F)cc3F)ccc2s1 | – | inactive: -1.1% [at 9.04 µM]
48 | Cc1cc(N2C(=O)C(O)=C(C(=O)c3ccco3)C2c2cccc(Oc3ccccc3)c2)no1 (stereo not given) | inconclusive [inhibitor, single point] | –

Row | Compound | Potency | activity change, negative = growth inhibition
49 | CCCCCCOC(=O)Cc1c(C)nc(-c2ccccc2)[nH]c1=O | inconclusive [inhibitor, single point] | –
50 | COC(=O)c1cc(NC(=O)C2COc3ccccc3O2)cc(C(=O)OC)c1 (stereo not given) | – | inconclusive: -32.5% [inhibitor]
51 | COc1ccc(-c2cnnn2-c2ccc([N+](=O)[O-])cc2)cc1 | inactive | –
52 | CC(c1ccon1)N(C)Cc1cn(C)nc1-c1cccc(Cl)c1 (stereo not given) | inconclusive [inhibitor, single point] | –
53 | Cc1ccc2[nH]cc(S(=O)(=O)c3ccc(F)cc3)c(=O)c2c1 | inconclusive [inhibitor, single point] | –
54 | CCOCCCn1c(SCC(=O)NC(C)C)nc2ccccc2c1=O | inactive | –
55 | CCc1ccccc1N(C)C(=O)CCc1nc(-c2ccc(C)cc2)no1 | inconclusive [inhibitor, single point] | –
56 | Cn1cccc1CC(=O)N/N=C\c1c2ccccc2cc2ccccc12 | inconclusive [inhibitor, partial curve] | –
57 | c1ccc(-c2csc3ncnc(Sc4nnnn4-c4ccccc4)c23)cc1 | inconclusive [inhibitor, partial curve, poor fit] | –
58 | C/C(Cl)=C/Cn1c(SCC(C)C)nc2c1c(=O)[nH]c(=O)n2C | inconclusive [inhibitor, partial curve, poor fit] | –
59 | CCCN1C(=O)C(O)(CC(=O)c2ccc(OC)c(OC)c2)c2ccccc21 (stereo not given) | inconclusive [inhibitor, single point] | –
60 | CCOc1ccc(CCNc2cc(C)nc3ncnn23)cc1OCC | active: 20.6 µM | –
61 | COc1ccccc1C1C2=C(COC2=O)Nc2cc3c(cc21)OCO3 (stereo not given) | inactive | –
62 | N#Cc1cccc(N2[C@@H](Cc3cc4ccccc4n3Cc3ccccc3)COC[C@H]2Cc2ccc3ccccc3c2)c1 | inactive | –
63 | CCc1ccc(/C=C/C(=O)C2C(=O)c3ccccc3C2=O)cc1 | inconclusive [inhibitor, single point] | –
64 | CCCC(C)c1oc(=O)cc(O)c1C (stereo not given) | inactive | –
65 | CC(C)[C@H]1c2ccc(F)cc2CC[C@@]1(CCN(C)CCCc1nc2ccccc2[nH]1)OC(=O)C1CC1 | active: 5.01 µM | –
66 | C/C(=N\Nc1ccc(S(=O)(=O)N2CCCCC2)cn1)c1ccc(O)cc1 | inconclusive [inhibitor, single point] | –
67 | O=C(Nc1ccc2nc(SCCOc3ccccc3)sc2c1)c1cccs1 | inconclusive [inhibitor, single point] | –
68 | COc1ccc(-c2csc3ncn(-c4ccc(C)cc4)c(=O)c23)cc1OC | inconclusive [inhibitor, single point] | –
69 | C[C@H]1CN([C@@H](C)CO)S(=O)(=O)c2ccc(C#Cc3ccccn3)cc2O[C@H]1CN(C)Cc1ccc(F)cc1 | inconclusive [inhibitor, single point] | –
70 | O=C(CC(CC(=O)c1ccc(Br)cc1)c1cccnc1)c1ccc(Br)cc1 | active: 14.6 µM | –
